Test system: NL4-3IN-R263K
Assay type: cell-based
Settings: p24

## C[C@H]1N2C(=O)c3c(O)c(=O)c(C(=O)NCc4ccc(F)cc4F)cn3C[C@@H]2OCC12CC2 [ACC017]
  FC (Fold Change) EC50 (NL4-3IN-R263K)/EC50 (NL4-3): 16.52

— article PMC12846677 (Viruses, 2025)
